Data from PubChem BioAssay AID624417 (National Center for Advancing Translational Sciences (NCATS), 2012).
The whole screen tested about 410,000 compounds, of which about 6,400 (1.6%) were called active. Inconclusive means that the source gave no clear call. Such entries were picked first, then a sample of the others. The call rests on the fitted dose curve; in most records, active means well fitted inhibition curve with a large enough effect; inconclusive means small, poorly fitted or top-dose-only effect; inactive means no such curve, though single readings can be large or run the other way. A potency beside an inconclusive call is a rough fit, not a confirmed value.

The compounds below were run against Glucagon-like peptide 1 receptor (Homo sapiens) (UniProt P43220) (assay: qHTS of GLP-1 Receptor Inverse Agonists (Inhibition Mode)). Conditions: HEK293 GLP-1R CRE-luciferase, luminescence, 24 h, GLP-1R form is constitutively active; activity change, negative = inhibition: at 38.3 µM (top of the series) unless noted.
Summary of the method: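 Stable HEK293 clone (constitutively active GLP-1R + cAMP-response luciferase); 200 cells/uL plated, 12 h pre-culture, compound 24 hr, 37 deg C/5% CO2; detection reagent 12 min RT; luminescence.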
Further: nearly all actives have a fitted effect of over 55% in size.
On the % scale 0 is the no-effect control and ±100 the full control effect; potency means the concentration at half of the fitted maximal effect; tags describe the fitted curve by direction and shape.

Sequence of UniProt P43220 (P43220 whole entry, looked up): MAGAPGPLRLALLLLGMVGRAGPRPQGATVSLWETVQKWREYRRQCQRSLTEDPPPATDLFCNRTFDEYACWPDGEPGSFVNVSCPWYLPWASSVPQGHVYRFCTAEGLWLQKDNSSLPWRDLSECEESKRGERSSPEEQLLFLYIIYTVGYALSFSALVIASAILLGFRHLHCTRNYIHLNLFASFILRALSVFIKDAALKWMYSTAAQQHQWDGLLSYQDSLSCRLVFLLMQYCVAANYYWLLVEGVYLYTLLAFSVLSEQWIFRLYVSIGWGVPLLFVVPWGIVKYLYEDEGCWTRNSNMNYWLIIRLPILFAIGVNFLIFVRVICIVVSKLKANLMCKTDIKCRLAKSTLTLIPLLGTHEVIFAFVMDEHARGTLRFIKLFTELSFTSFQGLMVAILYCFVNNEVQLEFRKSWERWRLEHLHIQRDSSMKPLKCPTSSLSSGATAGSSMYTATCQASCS

Potency, inconclusive:
O=C(CCc1ccccc1)NC(c1cccs1)c1cc(Cl)c2cccnc2c1O (stereo not drawn) 8.91 µM [inhibitor, partial curve, poor fit]
CC(C(=O)Nc1ccc(S(=O)(=O)N2CCCC2)cc1)N(C)Cc1ccc(F)cc1 (stereo not drawn) 28.2 µM [inhibitor, single point]
Nc1ccc(C(=O)N2CCN(S(=O)(=O)c3ccc(Cl)cc3)CC2)cc1[N+](=O)[O-] 28.2 µM [inhibitor, single point]
CC(C)(C)NC(=O)C(c1ccnc2ccccc12)n1c(=O)c(-c2ccccc2)nc2ccccc21 (stereo not drawn) 11.2 µM [inhibitor, partial curve, poor fit]
CCN1CCN(Cc2cccc(Oc3ccc(Cl)cc3)c2)CC1 10 µM [inhibitor, partial curve, poor fit]
O=C(CNC(=O)C(c1ccccc1)c1ccccc1)N/N=C\c1cccc(O)c1 11.2 µM [inhibitor, partial curve, poor fit]
CCCCN(CCCC)C(=O)CSc1nnc2n(C)c(=O)c3c4c(sc3n12)CCCC4 0.316 µM [inhibitor, full curve, poor fit]
COc1ccc(-n2cnc3sc4c(c3c2=O)CCCC4)cc1 28.2 µM [inhibitor, single point]
COc1ccc(-c2cc(CNc3nc(NCc4ccccc4OC)nc4ccsc34)on2)cc1 28.2 µM [inhibitor, single point]
CCOC(=O)C1=C(N)N(c2ccc(C)cc2)C2=C(C(=O)CCC2)C1c1cccs1 (stereo not drawn) 28.2 µM [inhibitor, single point]
CN(C)c1ccc(/C=N/N2C(=S)SC(C)(C)C2N(O)C(=O)Nc2ccc([N+](=O)[O-])cc2)cc1 (stereo not drawn) 10 µM [inhibitor, partial curve, poor fit]
CC1(C(=O)NCC2CCOCC2)Cc2c(-c3cccc(C(F)(F)F)c3)ccnc2O1 (stereo not drawn) 7.08 µM [inhibitor, partial curve]
CC1CC(C)CN(C(=O)c2cc(-c3ccccn3)nc3ccccc23)C1 (stereo not drawn) 12.6 µM [inhibitor, partial curve, poor fit]
CC(C)CC(COCc1ccc([N+](=O)[O-])cc1)N1CCN(C(=O)c2ccc(C(F)(F)F)cc2)CCC1=O (stereo not drawn) 28.2 µM [inhibitor, single point]
O=C(c1ccc2c(c1)OCO2)N(Cc1cccs1)C1(C(=O)NC2CCCCC2)CCCCC1 8.91 µM [inhibitor, partial curve, poor fit]
CCOC(=O)C1CCCN(Cc2ccc(OCc3ccccc3)cc2)C1 (stereo not drawn) 28.2 µM [inhibitor, single point]
Cc1cccc(CSCc2ccc(C(=O)NC(C)C)o2)c1 15.8 µM [inhibitor, single point]
COc1ccccc1N1CCN(C(=O)c2cnc(N3CCOCC3)c3ccccc23)CC1 10 µM [inhibitor, partial curve]
CCOC(=O)Cc1c(C)nc2c(-c3cccc(Br)c3)c[nH]n2c1=O 12.6 µM [inhibitor, single point]
O=C(Nc1ccc(SC(F)F)cc1)c1ccccc1F 12.6 µM [inhibitor, single point]
CC(Cc1ccco1)NC(=O)c1ccc(C(F)(F)F)cc1 (stereo not drawn) 28.2 µM [inhibitor, single point]
CCOC(=O)c1cc2c(ccn2C)n1Cc1ccc(C#N)cc1 28.2 µM [inhibitor, single point]
Cc1[nH]n(-c2ccccc2)c(=O)c1/C=N/Nc1nncc(-c2ccccc2)n1 2.24 µM [inhibitor, full curve, poor fit]
CCC1CCCCN1CCCNC(=O)Cn1cnc2sc(C)c(S(=O)(=O)N3CC(C)CC(C)C3)c2c1=O (stereo not drawn) 1.78 µM [inhibitor, full curve, poor fit]
Cc1ccc(S(=O)(=O)N2C(c3ccc(Cl)c(Cl)c3)CC=C(C(=O)O)C2c2cccc(Cl)c2)cc1 (stereo not drawn) 28.2 µM [inhibitor, single point]
CCCCOc1ccc(C(=O)N(Cc2ccco2)Cc2ccco2)cc1 28.2 µM [inhibitor, single point]
Cc1ccc(NC(=O)CNc2cccc(S(=O)(=O)N3CCCCC3)c2)cc1F 7.94 µM [inhibitor, partial curve, poor fit]
COc1cccc(OCC(O)CNC(=O)c2oc3c(C)c(C)ccc3c2C)c1 (stereo not drawn) 2.51 µM [inhibitor, partial curve, poor fit]
CC1(OC(=O)C2CCCC2)C(=O)C=C2C=C(c3ccsc3)N(Cc3ccc4c(c3)OCO4)C=C2C1=O (stereo not drawn) 31.6 µM [inhibitor, single point]
CCCCCCN1C[C@@H](O)[C@H](n2cc(C3CC3)nn2)C[C@@H]1c1ccc(C)cc1 28.2 µM [inhibitor, single point]
CC(C)(C)[C@H]1CCC(=O)N([C@H](CN=[N+]=[N-])Cc2ccccc2)CC1 31.6 µM [inhibitor, single point]
COc1cccc(/C=N/N2CCN(C3c4ccccc4-c4ccccc43)CC2)c1O 8.91 µM [inhibitor, partial curve]
CCOC(=O)c1sc2c(c1C)C(c1cccs1)C1=C(CCCC1=O)N2 (stereo not drawn) 28.2 µM [inhibitor, single point]
CCN(CC)CCNC(=O)c1ccc(NC(=O)c2ccccc2-c2ccc(C(F)(F)F)cc2)cc1 3.55 µM [inhibitor, full curve, poor fit]
CCCCNS(=O)(=O)c1ccc2nc(SCC(=O)Nc3ccccc3Cl)[nH]c2c1 14.1 µM [inhibitor, single point]
Cc1nn(-c2ccc(F)cc2)c(C)c1NS(=O)(=O)c1ccc2ccccc2c1 20 µM [inhibitor, single point]
Cc1ccc(C)c(OCc2cc(C(=O)N3CCN(c4ccccc4)CC3)no2)c1 20 µM [inhibitor, single point]
CC(C)c1ccc(N2C(=O)N(Cc3ccccc3Cl)c3ccccc3S2(=O)=O)cc1 11.2 µM [inhibitor, partial curve, poor fit]
COc1ccc(OC)c(NC(=O)CNC(c2ccccc2)c2ccccc2)c1 10 µM [inhibitor, partial curve, poor fit]
COc1ccc(C2=NOC(COc3ccc4c(C)cc(=O)oc4c3)C2)c(OC)c1 (stereo not drawn) 2.51 µM [inhibitor, partial curve, poor fit]
COc1ccc(S(=O)(=O)Cc2ccc(C(=O)NC3CCC(C)CC3)o2)cc1 (stereo not drawn) 10 µM [inhibitor, partial curve, poor fit]
CCOC(=O)C1CCCN(CC(O)COC(c2ccccc2)c2ccccc2)C1 (stereo not drawn) 11.2 µM [inhibitor, single point]
S=C(NCCC1=CCCCC1)Nc1ccccc1 11.2 µM [inhibitor, partial curve, poor fit]
O=C(c1ccc(Cl)c(S(=O)(=O)N2CCc3ccccc32)c1)N1CCN(c2ccccc2O)CC1 10 µM [inhibitor, partial curve, poor fit]
O=C(CN1CCN(Cc2ccccc2)CC1)c1c[nH]c2ccccc12 31.6 µM [inhibitor, partial curve, poor fit]
CCCN(CC1CC1)C(=O)COC(=O)c1ccc2c(c1)C(=O)N(c1ccc(OCC)cc1)C2=O 12.6 µM [inhibitor, partial curve, poor fit]
CC(C)[C@H](CO)Nc1nc(NCc2ccc(S(N)(=O)=O)cc2)c2ncn(C(C)C)c2n1 11.2 µM [inhibitor, single point]
CCN(Cc1ccccc1)S(=O)(=O)c1ccc(F)c(C(=O)Nc2cc(C(F)(F)F)ccc2Cl)c1 14.1 µM [inhibitor, single point]
COc1ccc(-c2csc(N3CCSCC3)n2)cc1 28.2 µM [inhibitor, single point]
Cc1[nH]c2ccc(F)cc2c1CCN(Cc1ccncc1)C(=S)Nc1ccc(F)cc1 10 µM [inhibitor, partial curve, poor fit]

Potency, active:
O=C(Nc1ccc(F)cc1)C(NC1CCCCC1)c1ccccc1 (stereo not drawn) 7.94 µM

Activity change, negative = inhibition, inactive:
COc1ccc(Cn2c(CO)cnc2SCc2cccc(C)c2)cc1 -34.3%
Cc1cc(=O)n(C(C)Cc2ccccc2)n1C(C)Cc1ccccc1 (stereo not drawn) -2.26%
CCC(C)(C)NC(=O)C(c1ccccn1)N(C(=O)c1csnn1)C1CCCCC1 (stereo not drawn) 2.56%
Cc1c(-c2nnc(SCC(=O)Nc3ccc(Cl)cc3)o2)nnn1-c1ccc(F)cc1 7.81%
COCCNC(=O)CCCn1c(SCc2ccccc2Cl)nc2c(sc3ccccc32)c1=O -0.115%
COc1ccc(-n2c(=O)c3c(c4cc(OC)ccc4n3C)n(CCC(C)C)c2=O)cc1 6.81%
CC(C)CNC(=O)CSc1nc2scc(-c3ccccc3)c2c(=O)[nH]1 -17.2%
